Data on 167 variants can be found in the RNAGym collection of RNA variant scans (doi:10.7554/elife.90254).

The source gives no read counts; variants with many changes may rest on few reads.

B1: LINE1-mini (parent)
chain: GGCAGAGCUCAACACAGCGUGGCAAAGUGGCUGUGGCUAGACUGCC

This data set covers variants of B1. Briefly: self-cleavage, relative activity (ratio to wild type); higher = more cleavage; in vitro, sequencing; the parent is a self-cleaving ribozyme.
Consider C8A G21C C46U, for which the self-cleavage was determined as 0.73.

With C8A G21U G33C G36U G40A, the self-cleavage worked out at 0.01.

Regarding C8A A14C A25C A26U C42U G44U, the self-cleavage came to 0.14.

C8A C15U A39U G40C: the self-cleavage amounted to 0.63.

With C8A C13G A24C, the self-cleavage was 0.28.

As for G7U U38G C46G, the self-cleavage was 0.03.

With C8A C23U A41G, the self-cleavage is 0.34.

C8A A14G G21U C45A: the self-cleavage came out at 0.2.

In the case of C8A A12U U28C, the self-cleavage turned out to be 0.01.

With C8A G27U G29C C31U, the self-cleavage came to 0.09.

Turning to C8A C10A G40C, the self-cleavage worked out at 0.

In the case of C8A G36C U38A U43G C45U, the self-cleavage came to 0.27.

C8A G19C C31G C37A: the self-cleavage is 0.03.

For the variant C8A A12C C15G A25G, the self-cleavage is 0.02.

Turning to C8A A12U G17A C46G, the self-cleavage came out at 0.27.

C8A C15A G17U G21C U38A G40A: the self-cleavage is 0.06.

Regarding C8A C13U G36C C42A, the self-cleavage stood at 0.16.

In the case of C8A G19A U32C U38A, the self-cleavage was found to be 0.06.

C8A A39C G40A C45U: the self-cleavage worked out at 0.05.

For the variant C8A C18U G22U U38C, the self-cleavage amounted to 0.14.

C8A G17C G40C: the self-cleavage was found to be 0.17.

Consider C8A A11U C18G, for which the self-cleavage came out at 0.02.

Consider C8A G19A G21A, for which the self-cleavage is 0.91.

For the variant C8A C18G G44C, the self-cleavage was found to be 0.08.

On to C8A A12G A26C U34G C42U, for which the self-cleavage worked out at 0.07.

As to C8A A24G G35U, the self-cleavage was determined as 0.08.

On to C8A C18A G19U U20C C23A C31A C37U G44U, for which the self-cleavage turned out to be 0.02.

For the variant C8A A16U G29U, the self-cleavage came out at 0.16.

Regarding C8A G17U U28G G35U, the self-cleavage was 0.07.

Consider G7U U32G U38G G44C, for which the self-cleavage is 0.01.

As to C8A A11C C18U A26U C45G, the self-cleavage was found to be 0.01.

In the case of C8A G19C C37A, the self-cleavage is 0.04.

Turning to C8A G22C C45A, the self-cleavage is 0.07.

Turning to C8A C10A G22C U28G, the self-cleavage worked out at 0.02.

For the variant C8A A25U U38A C42U, the self-cleavage is 0.45.

C8A G22A C31G G36C: the self-cleavage stood at 0.08.

Consider C8A C13U G40U, for which the self-cleavage was determined as 0.12.

Turning to C8A A12U G44U, the self-cleavage was determined as 0.27.

Consider C8A C37U C42G C46A, for which the self-cleavage came to 0.03.

In the case of C8A G22A U32C, the self-cleavage worked out at 0.01.

Regarding C8A C15U G30A U34C G35A C45U, the self-cleavage was 0.17.

C8A A25G U43C: the self-cleavage is 0.49.

As to C8A G21U A39G G40C C42U C46A, the self-cleavage was 0.1.

As to C8A A11C C18A G33A, the self-cleavage is 0.05.

In the case of C8A A24U A25U G44A, the self-cleavage turned out to be 0.17.

For the variant C8A A26C U38G, the self-cleavage came to 0.01.

Regarding G7U U34C G36U, the self-cleavage amounted to 0.03.

As to C8A C10G G30C G44A, the self-cleavage is 0.02.

On to C8A C15G G44C, for which the self-cleavage came out at 0.17.

Turning to C8A G19A G35U C37A C46U, the self-cleavage was determined as 0.01.

Take C8A A14U G33U: the self-cleavage was 0.12.

For C8A A12G C15G U32C G33U, the self-cleavage worked out at 0.08.

As for C8A A25G C42A, the self-cleavage was determined as 0.13.

Regarding C8A A24G A25U G29C G36A A41U, the self-cleavage was found to be 0.11.

In the case of C8A C10A U38A, the self-cleavage was 0.03.

For the variant C8A A12U G19U C46U, the self-cleavage was 0.07.

For C8A C18U C45G, the self-cleavage amounted to 0.19.

As for C8A A16U G22U A39U, the self-cleavage came out at 0.12.

Turning to C8A G19C A24G G36U, the self-cleavage stood at 0.27.

With C8A G27A C45G, the self-cleavage came out at 0.56.

Take C8A C18A G19U: the self-cleavage is 0.07.

For the variant C8A C10A C31U, the self-cleavage was 0.01.

Regarding C8A G19A C37A U43G C45U, the self-cleavage was 0.38.

As to C8A G22A G27C U32C C46G, the self-cleavage was 0.06.

Turning to C8A G33A U38A C46A, the self-cleavage came to 0.23.

Regarding C8A C15G C37U, the self-cleavage was 0.11.

On to G7U U38A A41U, for which the self-cleavage is 0.05.

Consider C8A C15G G40U, for which the self-cleavage came to 0.95.

Turning to C8A G22C C23G A25G, the self-cleavage was 0.02.

As for C8A G27A G33A C45A, the self-cleavage came out at 0.13.

For the variant C8A A11G G33A, the self-cleavage worked out at 0.07.

Take C8A G29U G33U: the self-cleavage was 0.1.

For C8A C10A C23G C31U, the self-cleavage came to 0.02.

With C8A G17U C31A G40U, the self-cleavage was found to be 0.39.

Consider C8A A26C U28A U38G, for which the self-cleavage turned out to be 0.

In the case of C8A A24C G35C, the self-cleavage worked out at 0.13.

With C8A G27A G30U, the self-cleavage was found to be 0.1.

C8A C31U G33U U34C U38A: the self-cleavage turned out to be 0.02.

With C8A A14C C31U G33U C42U, the self-cleavage came to 0.07.

On to G7U U38G C42U, for which the self-cleavage stood at 0.05.

C8A C10A C13A U20C A24C A39G A41G: the self-cleavage turned out to be 0.01.

For the variant C8A G40C C45U, the self-cleavage is 0.07.

In the case of C8A A16U A25U U38G, the self-cleavage came out at 0.05.

Consider C8A C18A U32G, for which the self-cleavage is 0.14.

C8A A16C G29U G40U: the self-cleavage is 0.08.

Take C8A A26U G35A C46A: the self-cleavage was 0.99.

Turning to C8A A11U C31U, the self-cleavage was 0.11.

Regarding C8A A14G C46A, the self-cleavage is 0.37.

Consider C8A A14C G40A G44U C46A, for which the self-cleavage turned out to be 0.13.

As to C8A C10U C18U U38C, the self-cleavage is 0.05.

C8A A14C G30C C37U: the self-cleavage stood at 0.03.

With C8A G21U U38A, the self-cleavage worked out at 0.04.

With C8A C15U G21A, the self-cleavage was 0.3.

On to C8A G29U G30U, for which the self-cleavage was determined as 0.37.

Regarding C8A G21A G40A, the self-cleavage turned out to be 0.27.

In the case of C8A G27U U28A G40U C45A, the self-cleavage was found to be 0.33.

Turning to C8A C10U A25G U28G, the self-cleavage was 0.03.

Take C8A A11U C15G: the self-cleavage was 0.02.

On to C8A G36A U43C, for which the self-cleavage worked out at 0.05.

As for C8A A11U G17U A39U, the self-cleavage stood at 0.02.

Consider C8A G35C U43C, for which the self-cleavage stood at 0.01.

On to C8A G30A U34A, for which the self-cleavage worked out at 0.37.

For the variant C8A G19A G29U C46A, the self-cleavage was determined as 0.09.

For C8A C10G G21U G33C G40A, the self-cleavage came to 0.01.

As for C8A C15G G19U A25G A26G G29A C31A G33U, the self-cleavage was determined as 0.1.

Regarding C8A C13G C42A, the self-cleavage stood at 0.12.

For C8A C13G C42U, the self-cleavage amounted to 0.26.

On to C8A C37A G40U, for which the self-cleavage is 0.08.

In the case of C8A A14C G44U, the self-cleavage amounted to 0.04.

In the case of C8A A16C G29U G36A, the self-cleavage is 0.19.

C8A C15G C42A: the self-cleavage amounted to 0.11.

On to C8A A11U C42A, for which the self-cleavage was 0.01.

As for C8A G22A C23U U38G A39U, the self-cleavage was found to be 0.02.

As to C8A A12G C23U A41U, the self-cleavage worked out at 0.06.

For the variant C8A A14G G17U G33U, the self-cleavage came to 0.13.

As for C8A C10G G17A C37A C42G, the self-cleavage stood at 0.01.

As for C8A G27A C31U C42G, the self-cleavage turned out to be 0.1.

As for C8A C13A G17A C18A C31A G35C G36U U43A, the self-cleavage stood at 0.03.

With C8A C10A U34A A41C, the self-cleavage stood at 0.04.

With C8A G19C U20A C23U U34C, the self-cleavage stood at 0.

Regarding C8A C15U U38A, the self-cleavage was found to be 0.52.

Turning to C8A A12U C31G, the self-cleavage is 0.05.

With C8A A39C G40A, the self-cleavage worked out at 0.21.

For C8A A11G C13A U43C, the self-cleavage was 0.02.

Consider C8A A11C G36C, for which the self-cleavage was 0.02.

As for C8A G21U U28G G30C A39U G40C, the self-cleavage was found to be 0.02.

With C8A G21C G27C, the self-cleavage was found to be 0.19.

C8A C10U A11C: the self-cleavage came out at 0.01.

Take C8A C10U A11G: the self-cleavage came to 0.02.

On to C8A C18U U28G, for which the self-cleavage was 0.07.

Regarding C8A C23U A25U, the self-cleavage was determined as 0.12.

Regarding C8A A11C G19U A24U G44U, the self-cleavage is 0.

As for C8A A14U C31U C46A, the self-cleavage was 0.03.

For the variant C8A A39C G40U C46A, the self-cleavage came to 0.02.

As for C8A G21C U38G, the self-cleavage stood at 0.02.

For the variant C8A G21U G29U, the self-cleavage came out at 0.08.

On to C8A A26C C45A, for which the self-cleavage amounted to 0.23.

Take G7U U43G C46A: the self-cleavage came to 0.11.

With C8A G29U U38C C42U G44A, the self-cleavage was 0.44.

Regarding C8A G21A U32C, the self-cleavage is 0.57.

On to C8A G35C C42G, for which the self-cleavage came to 0.26.

On to C8A G17C G21U, for which the self-cleavage is 0.16.

C8A C10A C15G U34G A39C C45G: the self-cleavage is 0.01.

Consider C8A G17U A26U C31A, for which the self-cleavage amounted to 0.25.

For C8A C23U A26U, the self-cleavage turned out to be 0.46.

Consider C8A C18G U20C G29U G40A, for which the self-cleavage worked out at 0.03.

For the variant C8A C31G U34A G36A A39G, the self-cleavage was 0.03.

Take C8A C15A G40A: the self-cleavage was found to be 0.14.

For C8A G17U G19A A25U G29U, the self-cleavage was found to be 0.16.

In the case of C8A A11C G35C, the self-cleavage turned out to be 0.02.

Turning to G7U U34C C46U, the self-cleavage was 0.06.

In the case of C8A G27U G35C, the self-cleavage came out at 0.16.

For C8A A26U C31A, the self-cleavage was 0.78.

Consider C8A A24C C42A, for which the self-cleavage worked out at 0.18.

For C8A C42A C45A, the self-cleavage came to 0.24.

Turning to C8A A24U G33A, the self-cleavage was 0.05.

For the variant C8A G19U G29U, the self-cleavage came out at 0.16.

Regarding C8A C18U G29U C37U, the self-cleavage came out at 0.14.

Consider C8A G30U G44C, for which the self-cleavage was 0.04.

For C8A G30C U32A U38A, the self-cleavage amounted to 0.02.

As for C8A G19U A26U C45G, the self-cleavage was 1.76.

Consider C8A C13A C45U, for which the self-cleavage worked out at 0.53.

For the variant C8A C18A G22C G33A, the self-cleavage stood at 0.1.

Turning to C8A G17A U38A, the self-cleavage turned out to be 0.47.

Regarding C8A C13G A25C A26G, the self-cleavage stood at 0.25.

Take C8A G19A A26G G29A G36C: the self-cleavage was found to be 0.26.

Turning to C8A C18U G33C G36A, the self-cleavage amounted to 0.2.
